Laboratory results as given in article PMC12820563, “FoxP3 forms a head-to-head dimer in vivo and stabilizes its multimerization on adjacent microsatellites”.
This is one part of the list.

target: T1, MBP-FoxP1dN (Mus musculus, UniProt P58462 326-579); assay: PD-seq (MBP pull-down with sequencing); 20 mM Tris-HCl pH 7.5, 100 mM NaCl, 1.5 mM MgCl2, 0.4 uM protein, 0.1 uM dsDNA library, 30 min, room temperature, amylose pull-down; high values mean tight binding; settings: protein: recombinant; tags: His6-MBP; chain copies: 2; dsDNA, one strand shown
T1 sequence: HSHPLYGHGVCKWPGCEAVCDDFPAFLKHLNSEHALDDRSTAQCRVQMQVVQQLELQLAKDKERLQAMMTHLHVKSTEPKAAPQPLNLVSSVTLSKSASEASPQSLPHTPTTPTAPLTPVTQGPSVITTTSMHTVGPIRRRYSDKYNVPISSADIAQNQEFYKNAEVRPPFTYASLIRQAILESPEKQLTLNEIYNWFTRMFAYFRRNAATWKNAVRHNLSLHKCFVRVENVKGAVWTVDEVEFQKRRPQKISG
In short: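 Amylose resin was used to capture complexes formed during 30 min at room temperature in Tris pH 7.5 buffer with NaCl and MgCl2 between 0.4 µM His6-MBP-tagged mouse FoxP3 or FoxP1 fragment lacking the N-terminus, expressed in E. coli, and 0.1 µM Klenow-filled double-stranded degenerate DNA library. After three washes, the DNA was released with proteinase K, barcoded by PCR and sequenced on Illumina. Binding is pooled-replicate reads-per-million enrichment, pull-down over input.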

Sequence | binding signal
GATGATTGTTCTCCCAGCTGATGAATTTGGTTCTTCGAGTAAACAAATTTTCCTAATCTTTCTGTTCAAGCGCCATCTAC | 0.909 RPM ratio (pull-down/input)
GATGATTGTTCTCCCAGCTGATGAATTGCCCCACTCGAGTAAACAAATTTTCCTAATCTTTCTGTTCAAGCGCCATCTAC | 0.931 RPM ratio (pull-down/input)
GATGATTGTTCTCCCAGCTGATGAATTTTGCTACTCGAGTAAACAAATTTTCCTAATCTTTCTGTTCAAGCGCCATCTAC | 0.966 RPM ratio (pull-down/input)
GATGATTGTTCTCCCAGCTGATGAATTTGGTAGGTCGAGTAAACAAATTTTCCTAATCTTTCTGTTCAAGCGCCATCTAC | 0.783 RPM ratio (pull-down/input)
GATGATTGTTCTCCCAGCTGATGAATTATATGTATCGAGTAAACAAATTTTCCTAATCTTTCTGTTCAAGCGCCATCTAC | 1.41 RPM ratio (pull-down/input)
GATGATTGTTCTCCCAGCTGATGAATTAGCTTGATCGAGTAAACAAATTTTCCTAATCTTTCTGTTCAAGCGCCATCTAC | 0.848 RPM ratio (pull-down/input)
GATGATTGTTCTCCCAGCTGATGAATTAATGGTATCGAGTAAACAAATTTTCCTAATCTTTCTGTTCAAGCGCCATCTAC | 1.04 RPM ratio (pull-down/input)
GATGATTGTTCTCCCAGCTGATGAATTCCACCAATCGAGTAAACAAATTTTCCTAATCTTTCTGTTCAAGCGCCATCTAC | 0.94 RPM ratio (pull-down/input)
GATGATTGTTCTCCCAGCTGATGAATTATACTTCTCGAGTAAACAAATTTTCCTAATCTTTCTGTTCAAGCGCCATCTAC | 0.878 RPM ratio (pull-down/input)
GATGATTGTTCTCCCAGCTGATGAATTTGATCTATCGAGTAAACAAATTTTCCTAATCTTTCTGTTCAAGCGCCATCTAC | 0.921 RPM ratio (pull-down/input)
GATGATTGTTCTCCCAGCTGATGAATTCACACTCTCGAGTAAACAAATTTTCCTAATCTTTCTGTTCAAGCGCCATCTAC | 0.854 RPM ratio (pull-down/input)
GATGATTGTTCTCCCAGCTGATGAATTGTCGACTTCGAGTAAACAAATTTTCCTAATCTTTCTGTTCAAGCGCCATCTAC | 0.97 RPM ratio (pull-down/input)
GATGATTGTTCTCCCAGCTGATGAATTACCTGAATCGAGTAAACAAATTTTCCTAATCTTTCTGTTCAAGCGCCATCTAC | 1.05 RPM ratio (pull-down/input)
GATGATTGTTCTCCCAGCTGATGAATTCGTGATATCGAGTAAACAAATTTTCCTAATCTTTCTGTTCAAGCGCCATCTAC | 1.02 RPM ratio (pull-down/input)
GATGATTGTTCTCCCAGCTGATGAATTGGGCATGTCGAGTAAACAAATTTTCCTAATCTTTCTGTTCAAGCGCCATCTAC | 0.887 RPM ratio (pull-down/input)
GATGATTGTTCTCCCAGCTGATGAATTTTGGGTCTCGAGTAAACAAATTTTCCTAATCTTTCTGTTCAAGCGCCATCTAC | 0.795 RPM ratio (pull-down/input)
GATGATTGTTCTCCCAGCTGATGAATTACCGGCGTCGAGTAAACAAATTTTCCTAATCTTTCTGTTCAAGCGCCATCTAC | 0.93 RPM ratio (pull-down/input)
GATGATTGTTCTCCCAGCTGATGAATTACACTTTTCGAGTAAACAAATTTTCCTAATCTTTCTGTTCAAGCGCCATCTAC | 1.34 RPM ratio (pull-down/input)
GATGATTGTTCTCCCAGCTGATGAATTGCCACGTTCGAGTAAACAAATTTTCCTAATCTTTCTGTTCAAGCGCCATCTAC | 1.04 RPM ratio (pull-down/input)
GATGATTGTTCTCCCAGCTGATGAATTTGTATGTTCGAGTAAACAAATTTTCCTAATCTTTCTGTTCAAGCGCCATCTAC | 1.67 RPM ratio (pull-down/input)

Sequence | binding signal
GATGATTGTTCTCCCAGCTGATGAATTGTCTCCGTCGAGTAAACAAATTTTCCTAATCTTTCTGTTCAAGCGCCATCTAC | 0.976 RPM ratio (pull-down/input)
GATGATTGTTCTCCCAGCTGATGAATTCCCAGTTTCGAGTAAACAAATTTTCCTAATCTTTCTGTTCAAGCGCCATCTAC | 0.799 RPM ratio (pull-down/input)
GATGATTGTTCTCCCAGCTGATGAATTAGTACCCTCGAGTAAACAAATTTTCCTAATCTTTCTGTTCAAGCGCCATCTAC | 0.932 RPM ratio (pull-down/input)
GATGATTGTTCTCCCAGCTGATGAATTTACGCTCTCGAGTAAACAAATTTTCCTAATCTTTCTGTTCAAGCGCCATCTAC | 1.15 RPM ratio (pull-down/input)
GATGATTGTTCTCCCAGCTGATGAATTCCCCGCATCGAGTAAACAAATTTTCCTAATCTTTCTGTTCAAGCGCCATCTAC | 1.07 RPM ratio (pull-down/input)
GATGATTGTTCTCCCAGCTGATGAATTCCAGGCATCGAGTAAACAAATTTTCCTAATCTTTCTGTTCAAGCGCCATCTAC | 0.894 RPM ratio (pull-down/input)
GATGATTGTTCTCCCAGCTGATGAATTCGGAATTTCGAGTAAACAAATTTTCCTAATCTTTCTGTTCAAGCGCCATCTAC | 0.864 RPM ratio (pull-down/input)
GATGATTGTTCTCCCAGCTGATGAATTATCCGCATCGAGTAAACAAATTTTCCTAATCTTTCTGTTCAAGCGCCATCTAC | 1.15 RPM ratio (pull-down/input)
GATGATTGTTCTCCCAGCTGATGAATTAGGTGCGTCGAGTAAACAAATTTTCCTAATCTTTCTGTTCAAGCGCCATCTAC | 1.05 RPM ratio (pull-down/input)
GATGATTGTTCTCCCAGCTGATGAATTACAGTTTTCGAGTAAACAAATTTTCCTAATCTTTCTGTTCAAGCGCCATCTAC | 1.31 RPM ratio (pull-down/input)
GATGATTGTTCTCCCAGCTGATGAATTCAAATATTCGAGTAAACAAATTTTCCTAATCTTTCTGTTCAAGCGCCATCTAC | 1.05 RPM ratio (pull-down/input)
GATGATTGTTCTCCCAGCTGATGAATTTCATATATCGAGTAAACAAATTTTCCTAATCTTTCTGTTCAAGCGCCATCTAC | 1.03 RPM ratio (pull-down/input)
GATGATTGTTCTCCCAGCTGATGAATTCTATTGATCGAGTAAACAAATTTTCCTAATCTTTCTGTTCAAGCGCCATCTAC | 2.09 RPM ratio (pull-down/input)
GATGATTGTTCTCCCAGCTGATGAATTTCAAAGCTCGAGTAAACAAATTTTCCTAATCTTTCTGTTCAAGCGCCATCTAC | 0.801 RPM ratio (pull-down/input)
GATGATTGTTCTCCCAGCTGATGAATTGGGAAACTCGAGTAAACAAATTTTCCTAATCTTTCTGTTCAAGCGCCATCTAC | 0.889 RPM ratio (pull-down/input)
GATGATTGTTCTCCCAGCTGATGAATTTCGGTGGTCGAGTAAACAAATTTTCCTAATCTTTCTGTTCAAGCGCCATCTAC | 0.864 RPM ratio (pull-down/input)
GATGATTGTTCTCCCAGCTGATGAATTCATAACGTCGAGTAAACAAATTTTCCTAATCTTTCTGTTCAAGCGCCATCTAC | 1.01 RPM ratio (pull-down/input)
GATGATTGTTCTCCCAGCTGATGAATTGGACGCCTCGAGTAAACAAATTTTCCTAATCTTTCTGTTCAAGCGCCATCTAC | 0.889 RPM ratio (pull-down/input)
GATGATTGTTCTCCCAGCTGATGAATTCGTGCTGTCGAGTAAACAAATTTTCCTAATCTTTCTGTTCAAGCGCCATCTAC | 1.17 RPM ratio (pull-down/input)
GATGATTGTTCTCCCAGCTGATGAATTCCAATGCTCGAGTAAACAAATTTTCCTAATCTTTCTGTTCAAGCGCCATCTAC | 0.9 RPM ratio (pull-down/input)
